Target: Collagenase 3 (Homo sapiens, UniProt P45452)
Test: ASSAY_NAME: ChEMBL_634107 (CHEMBL1118891) DESCRIPTION: Inhibition of MMP13

SMILES	IC50 [nM]
O=C(NO)C1(S(=O)(=O)c2ccc(N3CCC(c4ccccc4O)CC3)cc2)CCOCC1 [N-hydroxy-4-(4-(4-(2-hydroxyphenyl)piperidin-1-yl)phenylsulfonyl)tetrahydro-2H-pyran-4-carboxamide]	11
O=C(NO)C1(S(=O)(=O)c2ccc(N3CCC(c4cccc5ccccc45)CC3)cc2)CCOCC1 [N-hydroxy-4-(4-(4-(naphthalen-1-yl)piperidin-1-yl)phenylsulfonyl)tetrahydro-2H-pyran-4-carboxamide]	11
